# Measured values published in the supplement of paper PMC8728848.
# The list shows a part of the results.
# B1: GS13846A-bth-444-19-444 (Bacteroides thetaiotaomicron) (protein)
# chain: SCENEFDVSDKADSLISVTVNTLNNQAAYNVGETAQAELWIQRGGLKDASGKVQFVVDPLLLDSLNQEDKTNYELLPENCYEMTNTEFTVDKNELCGYITYHPEKILALSAYNETKYVLPLRLISNDLAINPARNTSFLAFTILEPIVHISNAGVYNINPDLTSTMDIQIGVPFTNKWDILCNLTEDLSLIDEYNQINKVNFTLLPENAYTAPESVTLQEGVSQITASYQLKNNLVPGNYILPIKIGSITASQGGVPNNSLVIDEESNVLFCIVKEGNKINKSGWEVIECSSEHAGNEATYMIDDNESTYWHCKFKNEAGSSVPPFHFIIDMKKEITIAQIDLLNRGDGAANNIKWVEFYASNNNSEWDKIGAGDFNDEGTRATFRYYVKSTKARYLKLIIPEGYGNNCPPAAIRELTVYGLEGNN
# What was measured:
# Assay in all cases: glycan array binding signal (z-score within array); higher = stronger binding
# Conditions in all cases: glycan notation: IUPAC condensed, linker removed
# [1] = biological target: Fuc(a1-2)Gal(b1-4)GlcNAc(b1-3)Gal(b1-4)GlcNAc(b1-3)Gal(b1-4)GlcNAc
# Outline: (§1)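 The binding signal is a Z-score computed within each array and averaged over linkers. Arrays of the same protein sequence at different concentrations or buffers were also averaged together. Data originate from 3228 arrays in the Consortium for Functional Glycomics database, kept only where the protein sequence was available.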
# [2] = biological target: Fuc(a1-2)Gal(b1-4)GlcNAc(b1-3)GalNAc
# Outline: as §1
# [3] = biological target: Fuc(a1-2)Gal(b1-4)GlcNAc(b1-3)[Fuc(a1-2)Gal(b1-4)GlcNAc(b1-6)]GalNAc
# Outline: as §1
# [4] = biological target: Fuc(a1-2)Gal(b1-4)GlcNAc(b1-3)[Fuc(a1-3)[Gal(b1-4)]GlcNAc(b1-6)]Gal(b1-4)Glc
# Outline: as §1
# [5] = biological target: Fuc(a1-2)Gal(b1-4)GlcNAc(b1-6)GalNAc
# Outline: as §1
# [6] = biological target: Fuc(a1-2)Gal(b1-4)GlcNAc6S
# Outline: as §1
# [7] = biological target: Fuc(a1-2)Gal(b1-4)[Fuc(a1-3)]GlcNAc
# Outline: as §1
# [8] = biological target: Fuc(a1-2)Gal(b1-4)[Fuc(a1-3)]GlcNAc(b1-2)Man(a1-3)[Fuc(a1-2)Gal(b1-4)[Fuc(a1-3)]GlcNAc(b1-2)Man(a1-6)]Man(b1-4)GlcNAc(b1-4)[Fuc(a1-6)]GlcNAc
# Outline: as §1
# [9] = biological target: Fuc(a1-2)Gal(b1-4)[Fuc(a1-3)]GlcNAc(b1-2)[Fuc(a1-2)Gal(b1-4)[Fuc(a1-3)]GlcNAc(b1-4)]Man(a1-3)[Fuc(a1-2)Gal(b1-4)[Fuc(a1-3)]GlcNAc(b1-2)Man(a1-6)]Man(b1-4)GlcNAc(b1-4)GlcNAc
# Outline: as §1
# [10] = biological target: Fuc(a1-2)Gal(b1-4)[Fuc(a1-3)]GlcNAc(b1-3)Gal(b1-4)[Fuc(a1-3)]GlcNAc
# Outline: as §1
# [11] = biological target: Fuc(a1-2)Gal(b1-4)[Fuc(a1-3)]GlcNAc(b1-3)Gal(b1-4)[Fuc(a1-3)]GlcNAc(b1-3)Gal(b1-4)[Fuc(a1-3)]GlcNAc
# Outline: as §1
# [12] = biological target: Fuc(a1-2)Gal(b1-4)[Fuc(a1-3)]GlcNAc(b1-3)GalNAc
# Outline: as §1
# [13] = biological target: Fuc(a1-2)Gal(b1-4)[Fuc(a1-3)]GlcNAc(b1-3)[Neu5Ac(a2-6)Gal(b1-4)GlcNAc(b1-6)]Gal(b1-4)Glc
# Outline: as §1
# [14] = biological target: Fuc(a1-2)Gal3S(b1-4)GlcNAc
# Outline: as §1
# [15] = biological target: Fuc(a1-2)Gal6S(b1-3)GlcNAc
# Outline: as §1
# [16] = biological target: Fuc(a1-2)Gal6S(b1-3)GlcNAc6S
# Outline: as §1
# Fuc(a1-2)Gal6S(b1-4)Glc = biological target: Fuc(a1-2)Gal6S(b1-4)Glc
# Outline: as §1
# [17] = biological target: Fuc(a1-2)Gal6S(b1-4)Glc6S
# Outline: as §1
# Fuc(a1-2)[Gal(a1-3)]Gal = biological target: Fuc(a1-2)[Gal(a1-3)]Gal
# Outline: as §1
# [18] = biological target: Fuc(a1-2)[Gal(a1-3)]Gal(b1-3)GalNAc
# Outline: as §1
# [19] = biological target: Fuc(a1-2)[Gal(a1-3)]Gal(b1-3)GalNAc(b1-3)Gal(a1-4)Gal(b1-4)Glc
# Outline: as §1
# [20] = biological target: Fuc(a1-2)[Gal(a1-3)]Gal(b1-3)GlcNAc
# Outline: as §1
# [21] = biological target: Fuc(a1-2)[Gal(a1-3)]Gal(b1-3)GlcNAc(b1-2)Man(a1-3)[Fuc(a1-2)[Gal(a1-3)]Gal(b1-3)GlcNAc(b1-2)Man(a1-6)]Man(b1-4)GlcNAc(b1-4)GlcNAc
# Outline: as §1
# [22] = biological target: Fuc(a1-2)[Gal(a1-3)]Gal(b1-3)GlcNAc(b1-2)Man(a1-3)[Fuc(a1-2)[Gal(a1-3)]Gal(b1-3)GlcNAc(b1-2)Man(a1-6)]Man(b1-4)GlcNAc(b1-4)[Fuc(a1-6)]GlcNAc
# Outline: as §1
# [23] = biological target: Fuc(a1-2)[Gal(a1-3)]Gal(b1-3)GlcNAc(b1-3)GalNAc
# Outline: as §1
# [24] = biological target: Fuc(a1-2)[Gal(a1-3)]Gal(b1-3)GlcNAc(b1-6)GalNAc
# Outline: as §1
# [25] = biological target: Fuc(a1-2)[Gal(a1-3)]Gal(b1-4)Glc
# Outline: as §1
# [26] = biological target: Fuc(a1-2)[Gal(a1-3)]Gal(b1-4)GlcNAc
# Outline: as §1
# [27] = biological target: Fuc(a1-2)[Gal(a1-3)]Gal(b1-4)GlcNAc(b1-2)Man
# Outline: as §1
# [28] = biological target: Fuc(a1-2)[Gal(a1-3)]Gal(b1-4)GlcNAc(b1-2)Man(a1-3)[Fuc(a1-2)[Gal(a1-3)]Gal(b1-4)GlcNAc(b1-2)Man(a1-6)]Man(b1-4)GlcNAc(b1-4)GlcNAc
# Outline: as §1
binder,measurement,setting,value
B1,glycan array binding signal (z-score),[1],-0.209
same,glycan array binding signal (z-score),[2],-0.202
same,glycan array binding signal (z-score),[3],-0.213
same,glycan array binding signal (z-score),[4],0.069
same,glycan array binding signal (z-score),[5],-0.394
same,glycan array binding signal (z-score),[6],-0.349
same,glycan array binding signal (z-score),[7],-0.321
same,glycan array binding signal (z-score),[8],-0.105
same,glycan array binding signal (z-score),[9],-0.407
same,glycan array binding signal (z-score),[10],0.013
same,glycan array binding signal (z-score),[11],-0.101
same,glycan array binding signal (z-score),[12],2.24
same,glycan array binding signal (z-score),[13],-0.216
same,glycan array binding signal (z-score),[14],0.574
same,glycan array binding signal (z-score),[15],-0.259
same,glycan array binding signal (z-score),[16],0.009
same,glycan array binding signal (z-score),Fuc(a1-2)Gal6S(b1-4)Glc,-0.234
same,glycan array binding signal (z-score),[17],-0.431
same,glycan array binding signal (z-score),Fuc(a1-2)[Gal(a1-3)]Gal,-0.39
same,glycan array binding signal (z-score),[18],-0.119
same,glycan array binding signal (z-score),[19],-0.362
same,glycan array binding signal (z-score),[20],-0.41
same,glycan array binding signal (z-score),[21],-0.305
same,glycan array binding signal (z-score),[22],-0.256
same,glycan array binding signal (z-score),[23],-0.554
same,glycan array binding signal (z-score),[24],-0.104
same,glycan array binding signal (z-score),[25],-0.33
same,glycan array binding signal (z-score),[26],-0.11
same,glycan array binding signal (z-score),[27],-0.519
same,glycan array binding signal (z-score),[28],-0.034
